# Measurements reported in the supplement of paper PMC12217912.
# The list shows a part of the results. Sequences were assembled here from the parent chain. Values near 0.05 are background.
# B1: TEV protease; numbered along this chain (parent)
# chain: MGESLFKGPRDYNPISSSICHLTNESDGHTTSLYGIGFGPFIITNKHLFRRNNGTLVVQSLHGVFKVKDTTTLQQHLVDGRDMIIIRMPKDFPPFPQKLKFREPQREERICLVTTNFQTKSMSSMVSDTSCTFPSGDGIFWKHWIQTKDGQCGSPLVSTRDGFIVGIHSASNFTNTNNYFTSVPKNFMELLTNQEAQQWVSGWRLNADSVLWGGHKVFMVKPEEPFQPVKEATQL
# Variants of: B1
# Assay: raw area under fraction-flipped curve 0-4 h after induction (AUC4h, not background-subtracted), DNA-recorder readout of cleavage of the substrate (dimensionless); higher = more cleavage of the substrate by the protease variant
# Details: temperature: 34 °C; time window: 0-4 h after rhamnose induction
# 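Note: Bxb1 expression induced with 0.2% (w/v) L-rhamnose at OD600 near 0.5, cultures sampled hourly, flipped fraction per protease–substrate barcode pair counted by paired-end Illumina sequencing.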
Variant,area with substrate ENLDFQS,area with substrate ENLEFQS,area with substrate ENLFFQS,area with substrate ENLGFQS,area with substrate ENLHFQS,area with substrate ENLKFQS,area with substrate ENLLFQS,area with substrate ENLNFQS,area with substrate ENLPFQS,area with substrate ENLQFQS,area with substrate ENLRFQS,area with substrate ENLSFQS,area with substrate ENLVFQS,area with substrate ENLIFQS,area with substrate ENLWFQS,area with substrate ENLTFQS,area with substrate ENLMFQS
MGESLFKGPRDYNPISSSICHLTNESDGHTTSLYGIGFGPFIITNKHLFRRNNGTLVVQSLHGVFKVKDTTTLQQHLVDGRDMIIIRMPKDFPPFPQKLKFREPQREERICLVTTNFQTKSMSSMVSDTSCTFPSGDGIFWKHWIQTKDGQCGSPLVSTRDGFEVGIHSASNFTNTNNYFTSVPKNFMELLTNQEAQQWVSGWRLNADSVLWGGHKVFMVKPEEPFQPVKEATQL [I164E],0.0643,0.0539,0.0441,0.0551,0.0512,0.0598,0.0497,0.0559,0.0507,0.0396,0.0502,0.0506,0.0598,,,,
MGESLFKGPRDYNPISSSICHLTNESDGHTTSLYGIGFGPFIITNKHLFRRNNGTLVVQSLHGVFKVKDTTTLQQHLVDGRDMIIIRMPKDFPPFPQKLKFREPQREERICLVTTNFQTKSMSSLVSDTSCTFPSGDGIFWKHWIQTKDGQCGSPLVSTRDGFIVGIHSASNFTNTNNYFTSVPKNFMELLTNQEAQQWVSGWRLNADSVLWGGHKVFMVKPEEPFQPVKEATQL [M125L],0.0604,0.0653,0.0798,0.102,0.0843,0.0741,,0.0733,0.0703,0.0594,0.0809,0.0611,0.0811,0.0742,,,
MGESLFKGPRDYNPISSSICHLTNESDGHTTSLYGIGFGPFIITNKHLFRRNNGTLVVQSLHGVFKVKDTTTLQQHLVDGRDMIIIRMPKDFPPFPQKLKFREPQREERICLVTTNFQTLSMSSMVSDTSCTFPSGDGIFWKHWIQTKDGQCGSPLVSTRDGFIVGIHSASNFTNTNNYFTSVPKNFMELLTNQEAQQWVSGWRLNADSVLWGGHKVFMVKPEEPFQPVKEATQL [K120L],0.081,0.0694,0.0746,,,,0.0625,0.05,0.061,,,0.0519,,0.0678,,,
MGESLFKGPRDYNPISSSICHLTNESDGHTTSLYGIGFGPFIITNKHLFRRNNGTLVVQSLHGVFKVKDTTTLQQHLVDGRDMIIIRMPKDFPPFPQKLKFREPQREERICLVTTNFQTKSMSSMVSDTSCTFPSGDGIFWKHWIQTKDGQCGSPLVSTRDGFIVGIHAASNFTNTNNYFTSVPKNFMELLTNQEAQQWVSGWRLNADSVLWGGHKVFMVKPEEPFQPVKEATQL [S169A],0.0414,,0.101,,0.0569,0.0842,0.0806,0.0585,,0.0542,0.0657,,,0.0634,0.0582,,
MGESLFKGPRDYNPISSSICHLTNESDGHTTSLYGIGFGPFIITNKHLFRRNNGTLVVQSLHGVFKVKDTTTLQQHLVDGRDMIIIRMPKDFPPFPQKLKFREPQREERICLVTTNFHTKSMSSMVSDTSCTFPSGDGIFWKHWIQTKDGQCGSPLVSTRDGFIVGIHSASNFTNTNNYFTSVPKNFMELLTNQEAQQWVSGWRLNADSVLWGGHKVFMVKPEEPFQPVKEATQL [Q118H],0.0938,,0.0936,,0.0782,0.0488,0.0719,0.0672,0.0654,0.0677,0.0553,,,,0.0711,,
MGESLFKGPRDYNPISSSICHLTNESDGHTTSLYGIGFGPFIITNKHLFRRNNGTLVVQSLHGVFKVKDTTTLQQHLVDGRDMIIIRMPKDFPPFPQKLKFREPQREERICLVTTNFFTKSMSSMVSDTSCTFPSGDGIFWKHWIQTKDGQCGSPLVSTRDGFIVGIHSASNFTNTNNYFTSVPKNFMELLTNQEAQQWVSGWRLNADSVLWGGHKVFMVKPEEPFQPVKEATQL [Q118F],0.059,0.0739,0.0767,,0.0629,0.0882,,0.0578,0.012,,0.0602,0.0727,,,,0.0617,
MGESLFKGPRDYNPISSSICHLTNESDGHTTSLYGIGFGPFIITNKHLFRRNNGTLVVQSLHGVFKVKDTTTLQQHLVDGRDMIIIRMPKDFPPFPQKLKFREPQREERICLVTTNFQTKSMSSMVSDTSCTFLSGDGIFWKHWIQTKDGQCGSPLVSTRDGFIVGIHSASNFTNTNNYFTSVPKNFMELLTNQEAQQWVSGWRLNADSVLWGGHKVFMVKPEEPFQPVKEATQL [P134L],0.0691,,0.0722,,0.0923,0.0727,,0.063,0.058,,0.0602,0.0646,0.0792,0.0559,,,
MGESLFKGPRDYNPISSSICHLTNESDGHTTSLYGIGFGPFIITNKHLFRRNNGTLVVQSLHGVFKVKDTTTLQQHLVDGRDMIIIRMPKDFPPFPQKLKFREPQREERICLVTTNFQTKSMSSMVSDTSCTFPSGDGIFWKHWIQTKDGQCGSPLVSTRDGFIVTIHSASNFTNTNNYFTSVPKNFMELLTNQEAQQWVSGWRLNADSVLWGGHKVFMVKPEEPFQPVKEATQL [G166T],0.0554,0.0619,0.0532,,0.0355,0.0411,0.0555,,0.0523,,0.0456,0.0519,,,,,0.033
MGESLFKGPRDYNPISSSICHLTNESDGHTTSLYGIGFGPFIITNKHLFRRNNGTLVVQSLHGVFKVKDTTTLQQHLVDGRDMIIIRMPKDFPPFPQKLKFREPQREERICLVTTNFQTKSMSSMVSDTSCTFPSGDGIFWKHWIQTKDGQCGSPLRSTRDGFIVGIHSASNFTNTNNYFTSVPKNFMELLTNQEAQQWVSGWRLNADSVLWGGHKVFMVKPEEPFQPVKEATQL [V157R],0.0612,0.0584,0.0627,0.0749,0.0629,0.0923,0.0464,0.0725,,0.052,0.0631,0.0596,,0.0621,0.0684,,0.0704
